Measurements: patent publication US20260258099A1

Substrate: B cell receptor of hybridoma 5H10 (against DSG-3) (murine)
Assay: cell-based or functional assay

B1: CRD-924-tesirine (Fc fusion)
chain: ELRIETKGQYDEEEMTMQQAKRRQKREWVKFAKPVREGEDNSKRNPIAKITSDYQATQKITYRISGVGIDQPPFGIFVVDKNTGDINITAIVDREETPSFLITVRALNAQGLDVEKPLILTVKILDINDNPPVFSQQIFMGEIEENSASNSLVMILNATDADEPNHLNSKIAFKIVSQEPAGTPMFLLSRNTGEVRTLTNSLDREQASSYRLVVSGADKDGEGLSTQAEVNIKVKDVNDNFPMFRGGGGSGGGGSGGGGS[human IgG1 Fc with changes and a few adjoining residues omitted here]
modifications: Tesirine conjugated by Fc-native cysteine conjugation
  percent increase in cell killing produced by the tesirine conjugate over the unconjugated CRD-924: > 90%
